Test results as given in PubChem BioAssay AID485367 (National Center for Advancing Translational Sciences (NCATS), 2010).
Hit rate of the full screen: of about 330,000 compounds, about 560 (0.17%) were called active. The inconclusive results got no clear call from the source; some entries with a clear call stand among them for comparison. Calls come from the whole dose curve; as a rule, active = well fitted inhibition curve with a large enough effect; inconclusive = small, poorly fitted or top-dose-only effect, or effect the other way; inactive = flat fitted curve, though single readings scatter. Potencies of inconclusive entries are left out as doubtful fits.

What follows are molecules tested against ATP-dependent 6-phosphofructokinase (Trypanosoma brucei brucei) (UniProt O15648) (assay: qHTS Assay to Find Inhibitors of T. brucei phosphofructokinase). Conditions: T. brucei PFK, ADP-Glo luminescence; activity, negative = inhibition: at 57.5 µM (top of the series).
Sequence of UniProt O15648 (O15648 whole entry, looked up): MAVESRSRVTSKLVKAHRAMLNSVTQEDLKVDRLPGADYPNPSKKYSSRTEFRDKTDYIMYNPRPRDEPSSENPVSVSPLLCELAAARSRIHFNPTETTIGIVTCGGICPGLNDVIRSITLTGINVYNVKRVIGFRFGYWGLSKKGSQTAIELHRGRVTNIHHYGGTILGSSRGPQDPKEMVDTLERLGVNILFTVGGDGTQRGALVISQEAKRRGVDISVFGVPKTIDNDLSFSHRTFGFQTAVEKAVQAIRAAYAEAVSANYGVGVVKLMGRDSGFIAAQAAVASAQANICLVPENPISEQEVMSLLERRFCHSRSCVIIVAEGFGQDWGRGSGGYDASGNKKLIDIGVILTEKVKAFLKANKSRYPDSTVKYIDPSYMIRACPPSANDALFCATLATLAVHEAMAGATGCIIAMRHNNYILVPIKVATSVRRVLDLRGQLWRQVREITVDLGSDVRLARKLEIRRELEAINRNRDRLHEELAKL
Source text: NIH Molecular Libraries Probe Production Network [MLPCN] NIH Chemical Genomics Center [NCGC] Grant: 1 R03 MH092153-01 PI Name: Malcolm Walkinshaw, University of Edinburgh NCGC Assay Overview: Various species of the protozoan family Trypanosomatidae are responsible for a range of serious human diseases in tropical and subtropical areas of the world. […] Many of the disorders caused by trypanosomatids are fatal if left untreated, but most currently used drugs are inefficient and toxic. […] Oxidative metabolism involving the mitochondrial tricarboxylic acid cycle and oxidative phosphorylation are repressed in these parasites, and recent RNA interference (RNAi) experiments have shown that even partial depletion of certain individual glycolytic enzymes can lead to the death of cultured parasites. One such glycolytic enzyme, phosphofructokinase (PFK), catalyzes the formation of fructose-1,6-bisphosphate (F1,6BP) and ADP from fructose-6-phosphate (F6P) and ATP, and in many metabolic circumstances makes an important contribution to the control of flux through the glycolytic pathway. As a specific glycolytic target, PFK is particularly attractive as it catalyzes the first irreversible step in glycolysis, and structural and kinetic studies have shown very substantial and essential differences from corresponding host enzymes, allowing for the discovery of parasite-selective inhibitors. The goal of this screen is to find small-molecule inhibitors of T. brucei PFK using a biochemical assay that measures PFK activity as a function of ADP production. A luminescence-based assay for T. brucei PFK activity has been developed which uses luciferase to detect production of ADP. Traditional luciferase-based nucleotide detection reagents rely on ATP production as a direct substrate for the luciferase reaction; however, PFK catalyzes the transfer of a phosphate from ATP to F6P, resulting in the net depletion of ATP. To directly measure the ADP product of the PFK reaction, we used the ADP-Glo detection kit (Promega), which utilizes two separate reactions to 1) deplete all remaining uncatalyzed ATP and 2) convert all remaining ADP to ATP, which is then detected through a traditional luciferase-coupled reaction. Compounds were screened as a concentration-titration series that ranged from 57 uM to 0.7 nM.
NCGC Assay Protocol Summary: NCGC Assay Protocol Summary: Substrate buffer was dispensed into white, solid 1536-well plates at 3uL/well in 0.1M triethanolamine (TEA) buffer, pH 8.0, containing final concentrations of 5 mM MgCl2, 0.01% Tween20, 0.5 mM fructose-6-phosphate (F6P) and 0.1mM ATP. Then, 23 nL of compounds or DMSO were delivered to each well using a pin tool. One uL T. brucei PFK (0.1M TEA, 0.01% Tween20, 0.1% bovine serum albumin (BSA) and 1.25nM PFK, final concentrations) was then dispensed, and plates were incubated at room temperature for 45 min. The luminescent detection reagent, ADP-Glo (Promega), was then added in two steps: the first reagent, ADP-Glo (which converts remaining uncatalyzed ATP), was added at 2.5uL/well and incubated for ten minutes at room temperature, and the second component, Kinase Detection reagent (which converts ADP to ATP as a substrate for luciferase-based luminescence), was added immediately after at 5uL/well, followed by one final ten minute room temperature incubation. The plates were measured on a ViewLux plate reader for luminescent signal using a clear filter with a one second exposure. The %Activity was determined from the corrected luminescence values. As no specific T. brucei PFK inhibitors have been identified in the literature, 1x (1.25nM) and 0x PFK enzyme controls (untreated) were included to normalize %Activity of identified inhibitors; 0x enzyme values corresponded to 100%Activity (full inhibition), while 1x PFK enzyme values were used to normalize 0%Activity (no inhibition). Concentration-response curves were fitted to the signals arising from the resulting luminescence. […]
Note: nearly all actives have a fitted effect of over 60% in size.
Potency is the fitted concentration of half-maximal effect; tags give direction and shape of the fitted curve.

SMILES | activity, negative = inhibition | Potency
Cc1ccccc1C(=O)NNC(=O)C(=O)Nc1cccc(Cl)c1C | inactive: 0.0245% | 
CCCCC(CC)CN=C(N)NC(N)=NCCCCCCN=C(N)NC(N)=NCC(CC)CCCC (stereo unspecified) |  | inconclusive [activator, single point]
CCOc1ccc(NC(=O)NCc2cccnc2)cc1 | inactive: -0.729% | 
CCOC(=O)CC(NS(=O)(=O)c1ccc(OC)c(OC)c1)c1cccc([N+](=O)[O-])c1 (stereo unspecified) | inactive: 4.22% | 
COc1cccc(NC(=O)NCCc2ccc(Cl)cc2)c1 |  | inconclusive [falling, single point]
COC(=O)c1ccc(-n2c(C)cc(C(=O)CCl)c2C)cc1 | inactive: 8.28% | 
O=C(Nc1ccc(Cl)c(Cl)c1)Nn1cnnc1 |  | inconclusive [falling, partial curve, poor fit]
CC(C)C(C(=O)O)N1C(=O)/C(=C/C=C/c2ccco2)SC1=S (stereo unspecified) |  | inconclusive [falling, partial curve]
NC(=S)N=Nc1ccc(NN=C(N)N)cc1 |  | inconclusive [falling, partial curve]
CC(C)n1cc(CN2CCCC(C(=O)Nc3ccccc3Oc3cccnc3)C2)cn1 (stereo unspecified) |  | inconclusive [falling, single point]
COc1ccc2[nH]c(C(=O)O)c(CCC(=O)O)c2c1 | inactive: 4.8% | 
CC(C(=O)O/N=C(\N)c1ccccn1)c1ccc([N+](=O)[O-])cc1 (stereo unspecified) |  | inconclusive [falling, single point]
CCCCN1C(=N)N([C@@H](C)CN2CCC[C@H]2CN2C(N)=NC[C@@H]2Cc2ccccc2)C[C@H]1[C@H](C)CC |  | inconclusive [falling, single point]
O=[N+]([O-])c1ccc(NCc2ccc3c(c2)OCO3)cc1 |  | active: 6.01 µM
Cc1cc(Br)ccc1N=C1NC(=O)CS1 |  | inconclusive [falling, partial curve]
Cc1ccc(N/N=C/c2c(C)c(C#N)c(=O)n(C)c2O)cc1C |  | inconclusive [falling, partial curve]
O=C(N/N=C/C=C/c1ccc([N+](=O)[O-])cc1)C1COc2ccccc2O1 (stereo unspecified) |  | active: 12 µM
NC(=O)Nc1ccc(Cl)cc1 |  | active: 21.3 µM

SMILES | activity, negative = inhibition | Potency
COc1cccc(NC(=O)CN(C)C(=O)c2ccc(Cl)c(S(=O)(=O)N3CCCCCC3)c2)c1 | inactive: -1.58% | 
O=C(NCc1ccc(Cl)cc1)c1nccnc1CO |  | inconclusive [falling, single point]
CCC1CN(C(=O)NCc2ccc(F)cc2)c2cc(Cl)ccc2O1 (stereo unspecified) | inactive: -8.51% | 
COc1ccc2[nH]c3c4c(ccc3c2c1)C(=O)C=CC4=O |  | active: 12 µM
CN1CCC(N(C)S(=O)(=O)c2ccc(NC(=O)COc3ccc(Cl)cc3)cc2)CC1 |  | inconclusive [falling, partial curve]
COc1ccccc1CCN1CCCC(CN(C)C(=O)c2ccoc2)C1 (stereo unspecified) | inactive: -1.9% | 
CC(=O)c1ccccc1NS(=O)(=O)c1cccc2nsnc12 |  | inconclusive [falling, single point]
CN(C)S(=O)(=O)Oc1ccccc1C(=O)Nc1ccc(F)cc1F |  | inconclusive [falling, single point]
Oc1cc2c(cc1C(c1ccc(Cl)c(Cl)c1)N1CCCC1)OCO2 (stereo unspecified) |  | active: 21.3 µM
CCN(CC)CC(=O)N1c2ccccc2Sc2ccccc21 | inactive: -0.549% | 
CCn1cc(/C=N\NC(=O)Cc2ccc(Cl)cc2)cn1 |  | active: 19 µM
O=C(N/N=C/c1cccnc1)c1ccc(Cn2cc([N+](=O)[O-])cn2)o1 |  | inconclusive [falling, single point]
CCN(CC)c1ccc(C=C2C(=O)OC(C)(C(C)(C)C)OC2=O)cc1 (stereo unspecified) |  | inconclusive [falling, single point]
NS(=O)(=O)c1ccc(-c2ccc(/C=C3\NC(=S)NC3=O)o2)cc1 |  | inconclusive [falling, single point]
O=[N+]([O-])c1cc([N+](=O)[O-])c2c(=Nc3ccccc3)n(-c3ccccc3)n(O)c2c1 |  | inconclusive [activator, partial curve]
N#Cc1cnc(NN)nc1 |  | inconclusive [falling, single point]
O=C(Cc1ccc(Cl)cc1)N/N=C/c1cccc(O)c1 |  | active: 9.53 µM
CCOC(=O)NC(=O)CSc1nc2ccccc2[nH]1 |  | inconclusive [falling, single point]
